Assays:
Assay in all cases: BLI
[1] = biological target: ASPP2^E1090K/D1093S (human, UniProt Q13625, in part, E1090K | D1093S)
[2] = biological target: ASPP1^K1052E/S1055D (human, UniProt Q96KQ4, in part, K1052E | S1055D)
[3] = biological target: ASPP2^D1091G/E1092P (human, UniProt Q13625, in part, D1091G | E1092P)
[4] = biological target: ASPP2^D1093S (human, UniProt Q13625, in part, D1093S)

B1: human PP1α^[…] (enzyme)
chain: not shown
B1 gave a Kd [1] of 102 nM, a Kd [2] of 21.8 nM and a Kd [3] of 29.6 nM. It also gave a Kd [4] of 96 nM.

— publication PMC6377682 (2019)
